From the supplement of paper PMC12645437, “Orthogonal IMiD-Degron Pairs Induce Selective Protein Degradation in Cells” (ACS Chemical Biology, 2025)
Some of the results follow.

Biological target: no compound (DMSO)
Test: log2 fold change of degron read counts, EGFP-low vs EGFP+ sorted cells; higher = lower degron-EGFP level without compound (poor expression or instability)
Conditions: compound: DMSO control; 18 h
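Further: jurkat cells carrying a lentiviral library of mutant zinc finger degrons fused to EGFP plus mCherry, mCherry+ cells FACS sorted, degron abundance counted by next-generation sequencing.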

| Sequence | log2 fold change of degron read counts |
| --- | --- |
| FMCSVCGHPFTQKGNLLRHIKL | -0.171 |
| FLCDQCGASFTQKGNLLRHIKL | -2.22 |
| LGCNQCGFTCTQKGNLLRHIKL | 0.876 |
| FECEICGHMFTQKGNLLRHIKL | -2.03 |
| FLCEVCGARFTQKGNLLRHIKL | -1.53 |
| LFCPICGFQCTQKGNLLRHIKL | 0.773 |
| FKCSVCGHWFTQKGNLLRHIKL | 0.389 |
| FKCDICGAWFTQKGNLLRHIKL | -0.461 |
| FSCNQCGAWFTQKGNLLRHIKL | 0.104 |
| FYCPICGAAFTQKGNLLRHIKL | 0.0146 |
| FECPICGHHFTQKGNLLRHIKL | -0.873 |
| FQCPICGHVFTQKGNLLRHIKL | -0.19 |
| FICEICGRTFTQKGNLLRHIKL | -1.55 |
| LSCEICGFSCTQKGNLLRHIKL | -0.736 |
| FECEVCGAIFTQKGNLLRHIKL | -1.83 |
| FCCEICGRLFTQKGNLLRHIKL | -3.56 |
| FQCEICGRRFTQKGNLLRHIKL | -1.24 |
| FGCEICGAWFTQKGNLLRHIKL | -0.454 |
| FICPICGHCFTQKGNLLRHIKL | -0.36 |
| FCCNQCGAWFTQKGNLLRHIKL | 0.722 |
| FNCDVCGAAFTQKGNLLRHIKL | -1.37 |
| FICNVCGAYFTQKGNLLRHIKL | -0.114 |
| FDCPVCGALFTQKGNLLRHIKL | -0.543 |
| FACEICGARFTQKGNLLRHIKL | -0.785 |
| LVCPICGFCCTQKGNLLRHIKL | 1.03 |

| Sequence | log2 fold change of degron read counts |
| --- | --- |
| FHCEVCGATFTQKGNLLRHIKL | -1.83 |
| FDCEVCGAFFTQKGNLLRHIKL | -0.1 |
| FMCPQCGAEFTQKGNLLRHIKL | -1.65 |
| FECEQCGATFTQKGNLLRHIKL | -2.16 |
| FRCNQCGAQFTQKGNLLRHIKL | -1.01 |
| FFCPICGAHFTQKGNLLRHIKL | 0.474 |
| FDCNQCGRLFTQKGNLLRHIKL | 1.16 |
| FSCDVCGAFFTQKGNLLRHIKL | -0.533 |
| FGCPQCGAIFTQKGNLLRHIKL | -0.202 |
| FCCDICGACFTQKGNLLRHIKL | -1.58 |
| FICPQCGASFTQKGNLLRHIKL | -1.06 |
| LSCEICGFICTQKGNLLRHIKL | 0.662 |
| LRCPICGFVCTQKGNLLRHIKL | 1.11 |
| FKCNQCGHMFTQKGNLLRHIKL | -0.488 |
| FTCPICGHHFTQKGNLLRHIKL | -0.546 |
| FRCSVCGHIFTQKGNLLRHIKL | 0.0801 |
| FLCSVCGHFFTQKGNLLRHIKL | 1.4 |
| FQCPVCGADFTQKGNLLRHIKL | -1.35 |
| FACPVCGAQFTQKGNLLRHIKL | -0.697 |
| FNCPICGHIFTQKGNLLRHIKL | 0.249 |
| FECPICGRRFTQKGNLLRHIKL | -0.157 |
| LHCPICGFKCTQKGNLLRHIKL | 0.266 |
| FVCNVCGADFTQKGNLLRHIKL | -1.48 |
| FHCNVCGANFTQKGNLLRHIKL | -0.255 |
| FCCPICGHTFTQKGNLLRHIKL | -1.02 |
